In PubChem BioAssay AID651820 (National Center for Advancing Translational Sciences (NCATS), 2012):
In all, about 340,000 compounds went through this assay and about 12,000 (3.5%) were called active. Inconclusive results, whose numbers are uncertain, are shown with a selection of clear calls. Calls come from the whole dose curve; as a rule, active = well fitted inhibition curve with a large enough effect; inconclusive = small, poorly fitted or top-dose-only effect, or another doubt; inactive = no such curve, though single readings can be large or run the other way. Potencies of inconclusive entries are left out as doubtful fits.

assay: qHTS Assay for Inhibitors of Hepatitis C Virus (HCV); settings: Huh7.5.1 HCVcc-Cre (HCVcc is cell-culture hepatitis C virus) infection, luciferase reporter, 44 h; activity change, negative = inhibition: at 41.8 µM (top of the series)
Summary of the method: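 1,000 cells/well; 4 h culture; + compound; + HCVcc-Cre (~0.5 moi); 44 h; luciferase substrate, RT 15 min; read 15 sec.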
% is set by controls: 0 for no effect and ±100 for the full control effect; potency is the fitted concentration of half-maximal effect; tags give direction and shape of the fitted curve.

Row | SMILES | activity change, negative = inhibition | Potency
1 | O=C(c1ccc(Cl)c(Cl)c1)N1CCC(=O)N(C(CO)Cc2ccccc2)CC1 (stereo not drawn) | inactive: 1.92% | –
2 | CCOc1ccccc1Nc1nnc(SCC(=O)NCC2CCCO2)s1 (stereo not drawn) | inactive: -2.14% | –
3 | [O-]/C(=C(\C(=S)Nc1ccc(SC(F)F)cc1)[n+]1cccc(CO)c1)c1ccc(Cl)s1 | inactive: -25.3% | –
4 | Cc1ccc(N2C3=C(C(=O)CC(C)(C)C3)C(c3cn(C)nc3C)C3=C2CC(C)(C)CC3=O)cc1 | – | inconclusive [inhibitor, single point]
5 | COc1ccc(C(=O)NCCNc2ccc([N+](=O)[O-])cc2)cc1OC | inactive: -4.16% | –
6 | O=[N+]([O-])c1ccc(C2=NN(CCO)C(=Nc3ccc(OC(F)(F)F)cc3)SC2)cc1 | – | inconclusive [inhibitor, single point]
7 | CCc1ccccc1NC(=O)/C(C#N)=C\c1ccc(Sc2ccccc2)o1 | – | inconclusive [inhibitor, single point]
8 | COc1ccc(S(=O)(=O)NCc2ccccn2)cc1NC(=O)c1ccccc1 | – | inconclusive [inhibitor, full curve, poor fit]
9 | CCN1CCc2nc(SCC(=O)Nc3ccc(OC)cc3)c(C#N)cc2C1 | – | inconclusive [inhibitor, single point]
10 | COc1ccccc1NS(=O)(=O)c1cc(NC(=O)Nc2ccccc2)ccc1N1CCCCC1 | – | inconclusive [inhibitor, single point]
11 | COc1ccc(C)cc1S(=O)(=O)N1CCCC(C(=O)N2CCN(c3ccccc3F)CC2)C1 (stereo not drawn) | – | inconclusive [inhibitor, single point]
12 | CC(=O)Nc1ccc(S(=O)(=O)NCc2ccc3c(c2)cc(C)n3C)cc1 | – | inconclusive [inhibitor, partial curve]
13 | Nc1cc2[nH]c(=O)c3ccccc3c2cc1Br | – | inconclusive [inhibitor, full curve, poor fit]
14 | Cc1cccc(N=C2Sc3nc4c(C)c(C)ccc4cc3CN2CCN2CCOCC2)c1 | – | active: 12.6 µM
15 | OCCSc1nc(-c2ccccc2)nc2c1CCC2 | – | inconclusive [inhibitor, partial curve]
16 | CN1CCN(c2cc(N3CCN(C(=O)c4ccco4)CC3)c3c4c(onc24)-c2ccccc2C3=O)CC1 | – | inconclusive [inhibitor, single point]
17 | Cc1c(C(=O)N2CCC2)oc2ccc(Cl)cc12 | – | inconclusive [inhibitor, single point]
18 | CN(C)c1ccc(CNC(=O)CCc2ccc(S(=O)(=O)N3CCCCCC3)cc2)cc1 | – | inconclusive [inhibitor, single point]
19 | Cc1occc1-c1nnc(SCC(=O)c2ccc(Cl)cc2)n1C | – | inconclusive [inhibitor, partial curve, poor fit]
20 | Clc1ccc(COc2cccc(CNCc3ccncc3)c2)cc1 | – | inconclusive [inhibitor, single point]
21 | C#CC(C)(C)NC(=O)CSc1nc2c(c(=O)n(C)c(=O)n2C)n1CCCC | inactive: -15.9% | –
22 | COc1ccc(CCNC(=O)COC(=O)CSc2ccc([N+](=O)[O-])cc2)cc1OC | inactive: -11% | –
23 | CCCN1C2CCCC1CC(NC(=O)Nc1cccc(C(C)=O)c1)C2 (stereo not drawn) | – | active: 2.82 µM
24 | Cc1ccc(NC(=O)c2ccc3c(=O)n4c(nc3c2)CCC4)cc1F | – | inconclusive [inhibitor, partial curve]
25 | CC1=CC(C)(C)n2c(O)c(N=NC(N)=S)c3cc(C)cc1c32 | – | inconclusive [inhibitor, full curve, poor fit]

Row | SMILES | activity change, negative = inhibition | Potency
26 | Cc1ccc2c(CC(=O)N3CCOCC3)coc2c1 | inactive: 10.2% | –
27 | Cc1ccc2c(C)c(C(=O)Nc3nnc(C)s3)oc2c1 | inactive: 2.68% | –
28 | CC(C)N(Cc1ccccc1)C(=O)Cn1c(=O)cnc2ccccc21 | inactive: -2.16% | –
29 | O=C(c1ccco1)N1CCN(c2ncnc3c(-c4ccccc4)nsc23)CC1 | – | active: 22.4 µM
30 | O=C(CNC(=O)c1ccccc1)N/N=C/c1ccc([N+](=O)[O-])s1 | – | inconclusive [inhibitor, single point]
31 | Cc1ccc(NC(=O)c2ccnc(C(C)(C)C)c2)cc1 | – | inconclusive [inhibitor, single point]
32 | O=C(NNc1nc(-c2ccccc2)cs1)c1ccccc1 | – | inconclusive [inhibitor, single point]
33 | O=C(CN1CCCC1)Nc1ccc(Oc2ccc(NC(=O)CN3CCCC3)cc2)cc1 | – | inconclusive [inhibitor, partial curve]
34 | COCCNC(=O)CSc1nccn1Cc1ccc2c(c1)OCO2 | inactive: 14.1% | –
35 | COC(=O)Nc1ccc(S(=O)(=O)N2CCC(C)CC2)cc1 | inactive: 14% | –
36 | CN(C)c1nc(-c2ccccc2)cc(C(F)(F)F)c1C#N | – | inconclusive [inhibitor, full curve, poor fit]
37 | O=C(C1CCN(C2CCN(Cc3ccc4c(c3)CCO4)CC2)CC1)N1CCCC1 | – | inconclusive [inhibitor, partial curve]
38 | CC1(C)CC(O)CC(C)(C)N1CC(O)COCCOc1ccc(Br)cc1 (stereo not drawn) | – | inconclusive [inhibitor, single point]
39 | Cc1cc(-n2c(SCc3ccccc3F)nc3n[nH]c(C)c3c2=N)ccc1Cl | – | active: 10 µM
40 | COc1cc(Br)cc(/C=C/c2ccc3cccc(O)c3n2)c1O | – | inconclusive [inhibitor, partial curve]
41 | O=S(=O)(NCc1cccs1)c1ccc(Cl)s1 | inactive: 1.91% | –
42 | Cc1ccc(C)c(NC(=O)COC(=O)CC2CC3CCC2C3)c1 (stereo not drawn) | – | inconclusive [inhibitor, single point]
43 | Cc1ccc(C(=O)OCC(=O)N2c3ccccc3NC(=O)C2(C)C)cc1S(=O)(=O)N1CCCCC1 | – | inconclusive [inhibitor, partial curve]
44 | CCN(CC(=O)NCc1ccc(F)cc1)C(=O)C1CCN(C(=O)Nc2ccccc2)CC1 | – | inconclusive [inhibitor, single point]
45 | CCCCOc1ccc(/C=N/NC(=S)Nc2cccc(C)c2C)cc1 | inactive: 15.8% | –
46 | COc1cc(S(=O)(=O)Nc2ccc3nc(C)sc3c2)ccc1NC(C)=O | – | inconclusive [inhibitor, partial curve]
47 | O=C(CN(c1ccccc1F)S(=O)(=O)c1ccccc1)NC1CCCCCC1 | – | inconclusive [inhibitor, single point]
48 | COc1cc(/C=N\NC(=O)OC(C)(C)C)ccc1OC(=O)c1ccco1 | inactive: 7.37% | –
49 | CC12CCC(=O)N1c1c(sc3nc(N4CCOCC4)c4c(c13)CCCC4)C(=O)N2 (stereo not drawn) | – | inconclusive [inhibitor, partial curve]
50 | CS(=O)(=O)N1CCN(c2ccccc2NC(=O)CSc2ccc(Cl)cc2)CC1 | – | inconclusive [inhibitor, partial curve]

Row | SMILES | activity change, negative = inhibition | Potency
51 | CCOC(=O)C1NN=C(C(=O)c2ccccc2)C1c1ccc(Cl)cc1 (stereo not drawn) | – | inconclusive [inhibitor, partial curve]
52 | O=[N+]([O-])c1ccc(NC(=S)NCCc2ccc(F)cc2)cc1 | – | inconclusive [inhibitor, single point]
53 | COc1cccc(N(C(=O)C2COc3ccccc3O2)C(C(=O)NC2CCCCC2)c2ccc(O)cc2)c1 (stereo not drawn) | inactive: -7.1% | –
54 | Cc1cc(NC(=O)CCc2ccccc2)c([N+](=O)[O-])cc1C | inactive: -21.6% | –
55 | CCc1ccc(CN2CCC(C(=O)Nc3ccc(Oc4ccccc4)nc3)CC2)o1 | – | active: 11.2 µM
56 | Cc1cc(O)c(C)c(O)c1/C=N/NC(=O)c1cccnc1 | – | active: 12.6 µM
57 | COc1ccccc1NC(=O)C(C)OC(=O)c1cc2ccccc2[nH]1 (stereo not drawn) | – | inconclusive [inhibitor, full curve]
58 | O=C(CSc1nnc(Cc2ccccc2)n1Cc1ccccc1)NCc1ccco1 | inactive: 7.32% | –
59 | O=C(CN1CCCC1c1ccc2c(c1)OCCO2)NC(=O)Nc1ccccc1F (stereo not drawn) | – | inconclusive [inhibitor, partial curve, poor fit]
60 | CCOc1ccc(OCC)c(NC(=O)CSc2nc3c(c(=O)n(C)c(=O)n3C)n2C(C)C)c1 | – | active: 10 µM
61 | Cc1ccccc1-n1ncc2c1CC(C)(C)CC2NC(=O)c1ccncc1 (stereo not drawn) | inactive: 18.8% | –
62 | CCCOc1ccc(CNC(=O)Cn2c(=O)oc3ccccc32)cc1 | – | inconclusive [inhibitor, single point]
63 | NC(=O)NC(=O)COC(=O)c1ccc2noc(-c3ccccc3)c2c1 | inactive: -11.2% | –
64 | O=C(O)CSc1ccccc1C(=O)O | inactive: 15.2% | –
65 | Nc1cc(OC(=O)c2ccco2)nn1S(=O)(=O)c1ccc(F)cc1 | inactive: -22.6% | –
66 | O=C(NCc1ccccn1)Nc1ccccc1C(F)(F)F | inactive: 5.86% | –
67 | Cc1ccsc1-c1nc(CN2CCN(C)C(=O)[C@@H]2C)c(C)o1 | inactive: 0.0468% | –
68 | CCCCC(C(=O)NC1CCCC1)N(C(=O)c1snc(C(N)=O)c1N)c1ccc(OCC)cc1 (stereo not drawn) | – | inconclusive [inhibitor, single point]
69 | COC(=O)c1ccc(CNC(=O)c2ccc(OCC(=O)N3CCOCC3)c(OC)c2)cc1 | inactive: 6.62% | –
70 | Cc1cc(NC(=O)c2cccc(S(=O)(=O)N3CCCC3)c2)no1 | inactive: 11.5% | –
71 | CCc1nnc(NC(=O)CN2CCN(CC)CC2)s1 | inactive: 15.2% | –
72 | COc1ccc(-n2c3c(cc(C(=O)Nc4cccc(C)n4)c2=O)C(=O)CC(C)(C)C3)cc1 | – | inconclusive [inhibitor, single point]
73 | Cc1cccc(C(=O)Nc2sc3c(c2C(=O)O)CCCC3)c1 | – | inconclusive [inhibitor, single point]
